Test results as given in publication PMC4336329 (PLoS ONE, 2015).
Out of some 310,000 compounds screened, about 14,000 (4.5%) showed an effect of 50% or more. The effect is printed as a negative number. The list shows a part of the results.

What follows are compounds tested against human ether-à-go-go-related gene (hERG) potassium channel (human, UniProt Q12809) (assay: primary screen, population patch clamp on CHO cells stably expressing hERG).
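Note: peak tail current of the secondary pulse compared with the same well before compound.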

human ether-à-go-go-related gene (hERG) potassium channel, sequence (Q12809 whole entry, looked up): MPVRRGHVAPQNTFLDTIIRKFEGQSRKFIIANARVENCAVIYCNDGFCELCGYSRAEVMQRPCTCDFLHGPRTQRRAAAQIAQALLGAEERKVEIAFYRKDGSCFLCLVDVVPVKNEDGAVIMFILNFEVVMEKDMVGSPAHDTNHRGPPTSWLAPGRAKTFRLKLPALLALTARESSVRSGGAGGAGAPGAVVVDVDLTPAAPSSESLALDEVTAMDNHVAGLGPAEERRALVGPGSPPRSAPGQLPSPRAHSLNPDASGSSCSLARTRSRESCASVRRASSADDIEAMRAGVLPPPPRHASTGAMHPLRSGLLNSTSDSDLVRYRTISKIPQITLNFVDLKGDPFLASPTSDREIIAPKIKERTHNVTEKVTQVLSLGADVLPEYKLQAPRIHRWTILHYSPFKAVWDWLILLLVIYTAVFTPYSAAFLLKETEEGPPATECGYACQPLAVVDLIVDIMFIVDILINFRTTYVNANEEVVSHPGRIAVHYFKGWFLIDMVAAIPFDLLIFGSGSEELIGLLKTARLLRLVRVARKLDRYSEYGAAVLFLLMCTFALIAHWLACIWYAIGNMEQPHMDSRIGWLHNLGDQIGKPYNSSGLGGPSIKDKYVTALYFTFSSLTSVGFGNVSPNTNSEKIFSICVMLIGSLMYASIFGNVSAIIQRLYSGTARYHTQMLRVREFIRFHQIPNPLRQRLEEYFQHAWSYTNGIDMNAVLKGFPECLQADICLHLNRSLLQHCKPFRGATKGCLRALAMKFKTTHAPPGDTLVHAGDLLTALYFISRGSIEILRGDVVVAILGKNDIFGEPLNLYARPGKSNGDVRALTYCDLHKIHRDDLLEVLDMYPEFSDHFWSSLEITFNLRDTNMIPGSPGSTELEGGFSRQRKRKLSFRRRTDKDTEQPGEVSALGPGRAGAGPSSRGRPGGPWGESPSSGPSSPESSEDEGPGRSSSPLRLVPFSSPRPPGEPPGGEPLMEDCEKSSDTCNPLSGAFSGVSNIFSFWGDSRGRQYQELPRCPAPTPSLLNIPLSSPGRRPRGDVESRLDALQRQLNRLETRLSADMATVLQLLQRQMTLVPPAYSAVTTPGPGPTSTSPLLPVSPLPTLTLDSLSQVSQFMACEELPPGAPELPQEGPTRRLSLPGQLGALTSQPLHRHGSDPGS

Compound	hERG current change (%, negative = inhibition) at 10uM
CC(=O)N(CC(C)C(=O)O)c1c(I)cc(I)c(N)c1I (stereo not drawn)	18.5%
Cc1cc(C(=O)NCc2ccccc2Cl)c2ccccc2n1	9.49%
CCC(C)NC(=O)N[C@@H](CCSC)C(=O)O (stereo partly drawn)	5.84%
CC(=O)C1=C(C)OC(N)=C(C#N)C1c1cccc2ccccc12 (stereo not drawn)	4.77%
COC(=O)C1=C(C(=O)OC)[C@@H]2Nc3ccccc3[C@@]23C[C@@H](C(=O)OC)N(C(=O)c2ccco2)C3=N1	-16.2%
O=C1c2cccnc2C(=O)N1Cc1ccc(S(=O)(=O)N2CCN(c3ccc(Cl)cc3)CC2)cc1	-5.53%
COC(=O)C1=C(c2ccc(OC)c(OC)c2)C[C@@H]2CC[C@H]1N2C(=O)NC1CCCCC1	-0.475%
O=C(O)c1ccccc1CSc1ccccn1	10.4%
Cc1c(NCc2ccncc2)cccc1C(=O)O	14.1%
Cn1c(O)c(N=NC(=N)N)c2ccccc21	19.3%
NS(=O)(=O)CCCc1ccccc1	13.6%
CCn1c(CCNS(=O)(=O)c2ccccc2Br)nnc1SC	0.136%
O=C(Nc1ccc(OC(F)F)c(Cl)c1)[C@@H]1CCCN1C(=O)c1cccs1	-74.3%
CN1CCc2c(sc(N)c2C(=O)c2ccc(Cl)cc2)C1	4.48%
Cc1cc(C)c(S(=O)(=O)N2CCCOC2CNC(=O)C(=O)NCCc2c[nH]c3ccccc23)c(C)c1 (stereo not drawn)	1.55%
COc1ccc(N/C=C/C(=O)c2cc(OC)c(OC)c(OC)c2)cc1	-8.76%
CSc1ccccc1OCc1cc(C(=O)N(C)Cc2c(C)n[nH]c2C)no1	-11.7%
Cc1ccc(N2CC(C(=O)Nc3ncc([N+](=O)[O-])s3)CC2=O)cc1 (stereo not drawn)	6.15%
COc1ccc(Cn2c(CCC(=O)Nc3ccccc3)nc3cccnc32)cc1	-9.7%
COc1ccccc1NC(CC(=O)c1ccccc1)C(=O)OCC(=O)c1ccc(Br)cc1 (stereo not drawn)	-3.81%
COc1ccc(C2N(c3ccccn3)C(=O)C3CCCN32)c(OC)c1 (stereo not drawn)	8.94%
O=C(CSc1ccccc1F)NNC(=O)c1ccncc1	4.8%

Compound	hERG current change (%, negative = inhibition) at 10uM
O=S(=O)(Cc1ccccc1)N1CCN(Cc2ccc(Br)cc2)CC1	14.5%
Cc1noc(C)c1CCC(=O)NC1CCCN(Cc2ccc(Cl)cc2)C1 (stereo not drawn)	-24%
COc1cc(CNCCSc2nnnn2C)cc(Br)c1OCc1ccc(F)cc1.Cl	-43.9%
COc1ccc(CN2CCNC(=O)C2CC(=O)NCCCn2nnc3ccccc32)cc1C (stereo not drawn)	-2.87%
CC(=O)c1cccc(NC(=O)CCNS(=O)(=O)c2cccc3nonc23)c1	12.8%
Cc1c(Cl)cccc1NC(=O)c1ccc(-n2ccnc2)nc1	-3.33%
CCn1c(SCC(=O)c2cccs2)nnc1-c1cccs1	-33.2%
CC(=O)Nc1cccc(C(=O)OC(C)C(=O)N2CCc3ccccc32)c1 (stereo not drawn)	-33.2%
COc1ccc(C(=O)NC2CCCCCC2)cc1S(=O)(=O)N1CCCc2ccccc21	11.3%
Cc1ccsc1-c1nc(CN2C[C@@H](C)O[C@@H](C)C2)c(C)o1	17.5%
COc1cc(C2CC(=O)Oc3c(C(CCN4CCN(c5ccccc5)CC4)c4ccc(N(C)C)cc4)c(OC)cc(OC)c32)cc(OC)c1OC (stereo not drawn)	4.8%
COc1cc(C(=O)Nc2ccc(S(=O)(=O)Nc3nccc(C)n3)cc2)cc(OC)c1OC	12.9%
CC(=O)c1cc(NC(=O)c2cccc(C(F)(F)F)c2)c(=O)oc1/C=C/N(C)C	-6.48%
Cc1c(C)n(CCc2ccccc2)c2ncnc(NN)c12	-29.6%
CN(Cc1c(O)ccc2c1oc(=O)c1ccccc12)C1CCCCC1	-42.8%
CCOC(=O)C1C(=O)C=C(c2ccc(C)cc2)CC1c1ccco1 (stereo not drawn)	5.34%
Cc1cc(NS(=O)(=O)c2ccc(NC(=O)CCCOc3ccccc3)cc2)no1	14.5%
COc1cc(CN2CC(=O)N(c3ccc(C)c(Cl)c3)C2=S)cc(OC)c1OC	14.3%
COc1ccc(C(=O)Nc2ccc(NC(=O)c3cccc(OC)c3)cn2)cc1	16.8%
CN(C)C(Cc1ccccc1)C(=O)c1ccc(-c2ccccc2)cc1.Cl (stereo not drawn)	13.2%
Cc1cc(Cl)c2oc(C(=O)N(CCO)Cc3ccccc3)c(C)c2c1	9.92%
Nc1ncnc(Nc2ccccc2C(F)(F)F)n1	8.45%

Compound	hERG current change (%, negative = inhibition) at 10uM
CC1=NN(C(=O)c2ccc(Cl)cc2)C(O)(c2ccccc2)C1 (stereo not drawn)	22%
NS(=O)(=O)c1ccc(CCNC(=O)c2nc(CS(=O)(=O)c3ccc(Cl)cc3)no2)cc1	-7.88%
CC(OC(=O)c1cccc([N+](=O)[O-])c1)C(=O)NCc1ccc2c(c1)OCO2 (stereo not drawn)	-11.4%
O=C(NCCN1CCN(c2ccccc2)CC1)C1CCN(S(=O)(=O)c2cccc3nsnc23)CC1	12.8%
Cc1c(C(C)(C)C)c(C=S)n2ccccc12	-12%
CC(C)(C)OC(=O)N[C@@H](COCc1ccccc1)C(=O)N[C@@H](CO)[C@H](O)[C@@H]1C[C@@H]1C(=O)N1CCCC1	8.14%
Cc1cc(NC(=O)CN(C)S(=O)(=O)c2cnc[nH]2)ccc1Br	11.3%
COC(=O)c1ccccc1NS(=O)(=O)c1c(C)noc1C	-0.0399%
CCC1CCCCN1C(=O)c1ccc2c(c1)C(=O)N(c1ccc(C)cc1)C2=O (stereo not drawn)	-8.83%
COc1ccc([N+](=O)[O-])cc1NC(=O)N(C)Cc1ccco1	3.39%
CC(C)c1cccc(C(C)C)c1NC(=O)COC(=O)[C@H](C)NC(N)=O	16.8%
COc1cc(CNCCc2ccc3c(c2)OCO3)ccc1O.Cl	-6.17%
COCCN(CC(=O)Nc1ccccc1C)S(=O)(=O)c1ccc(S(=O)(=O)N2CCCC2)cc1	4.32%
Cn1c(=O)oc2cc(S(=O)(=O)NC3CCCCC3)ccc21	0.154%
Cc1nc(-c2ccc(F)cc2)c(CC(=O)N(C)CC(=O)Nc2ccc(F)cc2)s1	31.7%
COC(=O)c1c(C)[nH]c(C(=O)C(C)OC(=O)C2CC2C)c1C (stereo not drawn)	5.04%
CS(=O)(=O)Nc1nc2ccccc2[nH]1	1.9%
CN1CCN(c2nc(-c3ccc(Cl)c(Cl)c3)nc3ccccc23)CC1	6.63%
CCOCC(=O)N1CCN(c2cccc(Cl)c2)CC1	8.4%
CCN(Cc1ccccc1)C(=O)COC(=O)c1c(C)nsc1NC	-6.97%
O=C(NCCOC(=O)c1ccccc1)c1ccc([N+](=O)[O-])cc1	-25.3%
CCCNS(=O)(=O)c1cc2c3c(c1)CCN3C(=O)CC2	4.73%

Compound	hERG current change (%, negative = inhibition) at 10uM
Cn1c(=O)n(CCC(=O)O)c2ccccc21	5.85%
O=S(=O)(NCC1CCCO1)c1ccc(S(=O)(=O)N2CCCC2)cc1 (stereo not drawn)	9.47%
O=C(N/N=C/c1ccccc1)C1CCCN1C(=O)c1cc([N+](=O)[O-])cc([N+](=O)[O-])c1 (stereo not drawn)	-10.4%
OC(CNCCc1c[nH]c2ccccc12)C(F)(F)F (stereo not drawn)	0.45%
Cn1c(=O)[nH]c(=O)c2c1nc1n2CC(COc2ccc3ccccc3c2)O1 (stereo not drawn)	-16.5%
C=C(C)C1CC=C(C)/C(=N/NC(=O)c2ccc(NC(=O)c3cccc(C)c3)cc2)C1 (stereo not drawn)	13.8%
COc1ccc(S(=O)(=O)N2CCCC2)cc1C(C)C	1.54%
Cc1cccc(NC(=O)c2ccc(S(=O)(=O)N3CCOCC3)cc2)n1	19.5%
CNc1ccc(C(=O)OCC(=O)NCc2ccc3c(c2)OCO3)cc1[N+](=O)[O-]	-5.5%
CC1CC(C)CN(C(=O)Cn2cc(C=O)c3ccccc32)C1 (stereo not drawn)	-4.11%
O=C(O)CSCC(=O)N1CCCN(c2nccc(C(F)(F)F)n2)CC1	12.2%
COc1ccc(NC(=S)N(CCCN2CCOCC2)C(C)c2cc3ccccc3o2)cc1 (stereo not drawn)	-78.4%
COc1ccc(OC)c(C2/C(=C(/O)c3ccccc3)C(=O)C(=O)N2Cc2ccco2)c1 (stereo not drawn)	19.7%
CCn1cc(/C=N/NC(=O)c2cc3c(ccc4ccccc43)o2)c2ccccc21	4.1%
O=C(NCCO)c1cccc(S(=O)(=O)N2CCCCC2)c1	7.11%
CC(Sc1cccc[n+]1[O-])C(=O)Nc1cccc([N+](=O)[O-])c1 (stereo not drawn)	19.7%
N#Cc1cccc(C(c2nnnn2C2CCCC2)N2CCC(Cc3ccccc3)CC2)c1 (stereo not drawn)	8.5%
O=C(CCC(=O)Nc1ccccc1)NCCO	6.11%
O=C(CSc1nnc2ccc(-c3ccccn3)nn12)Nc1ccccc1	3.09%
CCOc1ccc(NS(=O)(=O)c2ccc(NC(C)=O)c(OC)c2)cc1	0.524%
O=C(NC12CC3CC(CC(C3)C1)C2)c1ccco1	-4.38%
